# According to patent US8106205B2, “N[S(4-aryl-triazol-3-yl)α-mercaptoacetyl]p-amino benzoic acids as HIV reverse transcriptase inhibitors” (priority 2004, dated 2012):
# Test system: Y188L mutant HIV
# Assay: microbe, parasite or virus in culture
# Conditions: Table 2, Y188L mutant; read-out: EC50 Y188L
# Description: (§1) With respect to suitable concentrations of contemplated compounds in pharmaceutical compositions, it should be appreciated that a person of ordinary skill in the art can readily adjust the amount of the compound to achieve inhibition of the reverse transcriptase and/or HIV replication. […] Alternatively, inhibition of the reverse transcriptase may be monitored in vivo using RT-PCR to determine the amount of copies of viral DNA and/or RNA in blood or lymph nodes (containing HIV infected cells). It is generally contemplated that suitable concentrations will achieve a serum concentration of between 1 nM and 100 uM, and in some cases between 0.01 nM and 1 nM).
# (§2) Compounds of the invention were tested against the wild-type and four mutant HIV reverse transcriptases. The results are listed in Table 1 and Table 2 as EC50 (nM) and IC50 (nM). In Tables 1 and 2, A represents <50 nM, B is between 50 and 100 nM, and C is >100 nM. ND is not determined.
row,SMILES,EC50 [µM]
1,NCCC[C@@H](N)C(=O)NS(=O)(=O)c1ccc(NC(=O)CSc2nnc(Br)n2-c2ccc(C3CC3)c3ccccc23)c(Cl)c1 [Compound 60],< 0.05
2,NS(=O)(=O)c1ccc(NC(=O)CSc2nnc(Br)n2-c2ccc(C3CC3)c3ccccc23)c(Cl)c1 [Compound 45],> 0.1
3,NS(=O)(=O)c1ccc(NC(=O)CSc2nnc(Br)n2-c2ccc(C3CCC3)c3ccccc23)c(Cl)c1 [Compound 73],< 0.05
4,Cc1cc(C2CC2)ccc1-n1c(Br)nnc1SCC(=O)Nc1ccc(S(N)(=O)=O)cc1Cl [Compound 61],< 0.05
5,O=C(O)CCC(=O)NS(=O)(=O)c1ccc(NC(=O)CSc2nnc(Br)n2-c2ccc(C3CC3)c3ccccc23)c(Cl)c1 [Compound 71],> 0.1
6,CCc1ccc(-n2c(Br)nnc2SCC(=O)Nc2ccc(S(N)(=O)=O)cc2Cl)c2ccccc12 [Compound 57],< 0.05
7,CC(=O)OC(C)OC(=O)NS(=O)(=O)c1ccc(NC(=O)CSc2nnc(Br)n2-c2ccc(C3CC3)c3ccccc23)c(Cl)c1 (stereo not drawn) [Compound 47],< 0.05
8,Cc1cc(C)c2ccccc2c1-n1c(CF)nnc1SCC(=O)Nc1ccc(S(N)(=O)=O)cc1Cl [Compound 53],< 0.05
9,CCCc1ccc(-n2c(Br)nnc2SCC(=O)Nc2ccc(S(N)(=O)=O)cc2Cl)c2ccccc12 [Compound 55],< 0.05
10,Cc1cc(S(N)(=O)=O)ccc1NC(=O)CSc1nnc(Br)n1-c1ccc(C)c2c1CCCC2 [Compound 51],< 0.05
11,N[C@@H](CC(=O)NS(=O)(=O)c1ccc(NC(=O)CSc2nnc(Br)n2-c2ccc(C3CC3)c3ccccc23)c(Cl)c1)C(=O)O [Compound 63],0.05 to 0.1
12,CCc1ccc(-n2c(Br)nnc2SCC(=O)Nc2ccc(S(N)(=O)=O)cc2Cl)c2c1CCCC2 [Compound 50],< 0.05
13,CCCc1ccc(-n2c(Br)nnc2SCC(=O)Nc2ccc(S(N)(=O)=O)cc2C)c2ccccc12 [Compound 56],< 0.05
14,NS(=O)(=O)c1ccc(NC(=O)CSc2nnc(Cl)n2-c2ccc(C3CC3)c3ccccc23)c(Cl)c1 [Compound 65],< 0.05
15,"NS(=O)(=O)c1ccc(NC(=O)CSc2nnc(Br)n2-c2c(Cl)cc(C3CCC3)c3ccccc23)c(Cl)c1 (single isomer, unassigned) [Compound 68]",< 0.05
16,CC(=O)NS(=O)(=O)c1ccc(NC(=O)CSc2nnc(Br)n2-c2ccc(C3CC3)c3ccccc23)c(Cl)c1 [Compound 48],> 0.1

# Test system: Y181C mutant HIV
# Assay: microbe, parasite or virus in culture
# Conditions: Table 2, Y181C mutant; read-out: EC50 Y181C
# Description: as §1, §2
row,SMILES,EC50 [µM]
1,NCCC[C@@H](N)C(=O)NS(=O)(=O)c1ccc(NC(=O)CSc2nnc(Br)n2-c2ccc(C3CC3)c3ccccc23)c(Cl)c1 [Compound 60],< 0.05
2,NS(=O)(=O)c1ccc(NC(=O)CSc2nnc(Br)n2-c2ccc(C3CC3)c3ccccc23)c(Cl)c1 [Compound 45],0.05 to 0.1
3,NS(=O)(=O)c1ccc(NC(=O)CSc2nnc(Br)n2-c2ccc(C3CCC3)c3ccccc23)c(Cl)c1 [Compound 73],< 0.05
4,Cc1cc(C2CC2)ccc1-n1c(Br)nnc1SCC(=O)Nc1ccc(S(N)(=O)=O)cc1Cl [Compound 61],< 0.05
5,O=C(O)CCC(=O)NS(=O)(=O)c1ccc(NC(=O)CSc2nnc(Br)n2-c2ccc(C3CC3)c3ccccc23)c(Cl)c1 [Compound 71],> 0.1
6,CCc1ccc(-n2c(Br)nnc2SCC(=O)Nc2ccc(S(N)(=O)=O)cc2Cl)c2ccccc12 [Compound 57],< 0.05
7,CC(=O)OC(C)OC(=O)NS(=O)(=O)c1ccc(NC(=O)CSc2nnc(Br)n2-c2ccc(C3CC3)c3ccccc23)c(Cl)c1 (stereo not drawn) [Compound 47],< 0.05
8,Cc1cc(C)c2ccccc2c1-n1c(CF)nnc1SCC(=O)Nc1ccc(S(N)(=O)=O)cc1Cl [Compound 53],< 0.05
9,CCCc1ccc(-n2c(Br)nnc2SCC(=O)Nc2ccc(S(N)(=O)=O)cc2Cl)c2ccccc12 [Compound 55],< 0.05
10,Cc1cc(S(N)(=O)=O)ccc1NC(=O)CSc1nnc(Br)n1-c1ccc(C)c2c1CCCC2 [Compound 51],< 0.05
11,N[C@@H](CC(=O)NS(=O)(=O)c1ccc(NC(=O)CSc2nnc(Br)n2-c2ccc(C3CC3)c3ccccc23)c(Cl)c1)C(=O)O [Compound 63],< 0.05
12,CCc1ccc(-n2c(Br)nnc2SCC(=O)Nc2ccc(S(N)(=O)=O)cc2Cl)c2c1CCCC2 [Compound 50],< 0.05
13,CCCc1ccc(-n2c(Br)nnc2SCC(=O)Nc2ccc(S(N)(=O)=O)cc2C)c2ccccc12 [Compound 56],< 0.05
14,NS(=O)(=O)c1ccc(NC(=O)CSc2nnc(Cl)n2-c2ccc(C3CC3)c3ccccc23)c(Cl)c1 [Compound 65],< 0.05
15,"NS(=O)(=O)c1ccc(NC(=O)CSc2nnc(Br)n2-c2c(Cl)cc(C3CCC3)c3ccccc23)c(Cl)c1 (single isomer, unassigned) [Compound 68]",< 0.05
16,CC(=O)NS(=O)(=O)c1ccc(NC(=O)CSc2nnc(Br)n2-c2ccc(C3CC3)c3ccccc23)c(Cl)c1 [Compound 48],0.05 to 0.1

# Biological target: T1, Y188L RT (Human immunodeficiency virus type 1 group M subtype B, UniProt P04585, Y775L)
# T1 construct: tested against the wild-type and four mutant HIV reverse transcriptases
# Assay: biochemical
# Set-up: species or system HIV
# Conditions: not given
# Procedure: as §2
row,SMILES,IC50 [µM]
1,Cc1cc(S(N)(=O)=O)ccc1NC(=O)CSc1nnc(C(F)F)n1-c1cccc2c(C#N)cccc12 [Compound 77],> 0.1

# Same assay, conditions: Table 2, Y188L RT; read-out: IC50 Y188L RT
row,SMILES,IC50 [µM]
1,NCCC[C@@H](N)C(=O)NS(=O)(=O)c1ccc(NC(=O)CSc2nnc(Br)n2-c2ccc(C3CC3)c3ccccc23)c(Cl)c1 [Compound 60],> 0.1
2,NS(=O)(=O)c1ccc(NC(=O)CSc2nnc(Br)n2-c2ccc(C3CC3)c3ccccc23)c(Cl)c1 [Compound 45],> 0.1
3,NS(=O)(=O)c1ccc(NC(=O)CSc2nnc(Br)n2-c2ccc(C3CCC3)c3ccccc23)c(Cl)c1 [Compound 73],< 0.05
4,Cc1cc(C2CC2)ccc1-n1c(Br)nnc1SCC(=O)Nc1ccc(S(N)(=O)=O)cc1Cl [Compound 61],> 0.1
5,O=C(O)CCC(=O)NS(=O)(=O)c1ccc(NC(=O)CSc2nnc(Br)n2-c2ccc(C3CC3)c3ccccc23)c(Cl)c1 [Compound 71],> 0.1
6,CCc1ccc(-n2c(Br)nnc2SCC(=O)Nc2ccc(S(N)(=O)=O)cc2Cl)c2ccccc12 [Compound 57],0.05 to 0.1
7,CC(=O)OC(C)OC(=O)NS(=O)(=O)c1ccc(NC(=O)CSc2nnc(Br)n2-c2ccc(C3CC3)c3ccccc23)c(Cl)c1 (stereo not drawn) [Compound 47],> 0.1
8,Cc1cc(C)c2ccccc2c1-n1c(CF)nnc1SCC(=O)Nc1ccc(S(N)(=O)=O)cc1Cl [Compound 53],> 0.1
9,CCCc1ccc(-n2c(Br)nnc2SCC(=O)Nc2ccc(S(N)(=O)=O)cc2Cl)c2ccccc12 [Compound 55],> 0.1
10,Cc1cc(S(N)(=O)=O)ccc1NC(=O)CSc1nnc(Br)n1-c1ccc(C)c2c1CCCC2 [Compound 51],0.05 to 0.1
11,N[C@@H](CC(=O)NS(=O)(=O)c1ccc(NC(=O)CSc2nnc(Br)n2-c2ccc(C3CC3)c3ccccc23)c(Cl)c1)C(=O)O [Compound 63],> 0.1
12,CCc1ccc(-n2c(Br)nnc2SCC(=O)Nc2ccc(S(N)(=O)=O)cc2Cl)c2c1CCCC2 [Compound 50],0.05 to 0.1
13,CCCc1ccc(-n2c(Br)nnc2SCC(=O)Nc2ccc(S(N)(=O)=O)cc2C)c2ccccc12 [Compound 56],> 0.1
14,NS(=O)(=O)c1ccc(NC(=O)CSc2nnc(Cl)n2-c2ccc(C3CC3)c3ccccc23)c(Cl)c1 [Compound 65],> 0.1
15,"NS(=O)(=O)c1ccc(NC(=O)CSc2nnc(Br)n2-c2c(Cl)cc(C3CCC3)c3ccccc23)c(Cl)c1 (single isomer, unassigned) [Compound 68]",0.05 to 0.1
16,CC(=O)NS(=O)(=O)c1ccc(NC(=O)CSc2nnc(Br)n2-c2ccc(C3CC3)c3ccccc23)c(Cl)c1 [Compound 48],> 0.1

# Biological target: T2, Y181C RT (Human immunodeficiency virus type 1 group M subtype B, UniProt P04585, Y768C)
# T2 construct: tested against the wild-type and four mutant HIV reverse transcriptases
# Assay: biochemical
# Set-up: species or system HIV
# Conditions: not given
# Procedure: as §2
row,SMILES,IC50 [µM]
1,Cc1cc(S(N)(=O)=O)ccc1NC(=O)CSc1nnc(C(F)F)n1-c1cccc2c(C#N)cccc12 [Compound 77],> 0.1

# Same assay, conditions: Table 2, Y181C RT; read-out: IC50 Y181C RT
row,SMILES,IC50 [µM]
1,NCCC[C@@H](N)C(=O)NS(=O)(=O)c1ccc(NC(=O)CSc2nnc(Br)n2-c2ccc(C3CC3)c3ccccc23)c(Cl)c1 [Compound 60],< 0.05
2,NS(=O)(=O)c1ccc(NC(=O)CSc2nnc(Br)n2-c2ccc(C3CC3)c3ccccc23)c(Cl)c1 [Compound 45],0.05 to 0.1
3,NS(=O)(=O)c1ccc(NC(=O)CSc2nnc(Br)n2-c2ccc(C3CCC3)c3ccccc23)c(Cl)c1 [Compound 73],< 0.05
4,Cc1cc(C2CC2)ccc1-n1c(Br)nnc1SCC(=O)Nc1ccc(S(N)(=O)=O)cc1Cl [Compound 61],< 0.05
5,O=C(O)CCC(=O)NS(=O)(=O)c1ccc(NC(=O)CSc2nnc(Br)n2-c2ccc(C3CC3)c3ccccc23)c(Cl)c1 [Compound 71],< 0.05
6,CCc1ccc(-n2c(Br)nnc2SCC(=O)Nc2ccc(S(N)(=O)=O)cc2Cl)c2ccccc12 [Compound 57],< 0.05
7,CC(=O)OC(C)OC(=O)NS(=O)(=O)c1ccc(NC(=O)CSc2nnc(Br)n2-c2ccc(C3CC3)c3ccccc23)c(Cl)c1 (stereo not drawn) [Compound 47],< 0.05
8,Cc1cc(C)c2ccccc2c1-n1c(CF)nnc1SCC(=O)Nc1ccc(S(N)(=O)=O)cc1Cl [Compound 53],< 0.05
9,CCCc1ccc(-n2c(Br)nnc2SCC(=O)Nc2ccc(S(N)(=O)=O)cc2Cl)c2ccccc12 [Compound 55],< 0.05
10,Cc1cc(S(N)(=O)=O)ccc1NC(=O)CSc1nnc(Br)n1-c1ccc(C)c2c1CCCC2 [Compound 51],< 0.05
11,N[C@@H](CC(=O)NS(=O)(=O)c1ccc(NC(=O)CSc2nnc(Br)n2-c2ccc(C3CC3)c3ccccc23)c(Cl)c1)C(=O)O [Compound 63],< 0.05
12,CCc1ccc(-n2c(Br)nnc2SCC(=O)Nc2ccc(S(N)(=O)=O)cc2Cl)c2c1CCCC2 [Compound 50],< 0.05
13,CCCc1ccc(-n2c(Br)nnc2SCC(=O)Nc2ccc(S(N)(=O)=O)cc2C)c2ccccc12 [Compound 56],< 0.05
14,NS(=O)(=O)c1ccc(NC(=O)CSc2nnc(Cl)n2-c2ccc(C3CC3)c3ccccc23)c(Cl)c1 [Compound 65],< 0.05
15,"NS(=O)(=O)c1ccc(NC(=O)CSc2nnc(Br)n2-c2c(Cl)cc(C3CCC3)c3ccccc23)c(Cl)c1 (single isomer, unassigned) [Compound 68]",< 0.05
16,CC(=O)NS(=O)(=O)c1ccc(NC(=O)CSc2nnc(Br)n2-c2ccc(C3CC3)c3ccccc23)c(Cl)c1 [Compound 48],< 0.05
